# In all, about 310,000 compounds went through this assay and about 2,200 (0.71%) showed an effect of 50% or more. The effect is printed as a negative number. The list shows a part of the results.
# Target: human ether-à-go-go-related gene (hERG) potassium channel (human, UniProt Q12809)
# Test: primary screen, population patch clamp on CHO cells stably expressing hERG
# Chain of human ether-à-go-go-related gene (hERG) potassium channel (Q12809 whole entry, looked up): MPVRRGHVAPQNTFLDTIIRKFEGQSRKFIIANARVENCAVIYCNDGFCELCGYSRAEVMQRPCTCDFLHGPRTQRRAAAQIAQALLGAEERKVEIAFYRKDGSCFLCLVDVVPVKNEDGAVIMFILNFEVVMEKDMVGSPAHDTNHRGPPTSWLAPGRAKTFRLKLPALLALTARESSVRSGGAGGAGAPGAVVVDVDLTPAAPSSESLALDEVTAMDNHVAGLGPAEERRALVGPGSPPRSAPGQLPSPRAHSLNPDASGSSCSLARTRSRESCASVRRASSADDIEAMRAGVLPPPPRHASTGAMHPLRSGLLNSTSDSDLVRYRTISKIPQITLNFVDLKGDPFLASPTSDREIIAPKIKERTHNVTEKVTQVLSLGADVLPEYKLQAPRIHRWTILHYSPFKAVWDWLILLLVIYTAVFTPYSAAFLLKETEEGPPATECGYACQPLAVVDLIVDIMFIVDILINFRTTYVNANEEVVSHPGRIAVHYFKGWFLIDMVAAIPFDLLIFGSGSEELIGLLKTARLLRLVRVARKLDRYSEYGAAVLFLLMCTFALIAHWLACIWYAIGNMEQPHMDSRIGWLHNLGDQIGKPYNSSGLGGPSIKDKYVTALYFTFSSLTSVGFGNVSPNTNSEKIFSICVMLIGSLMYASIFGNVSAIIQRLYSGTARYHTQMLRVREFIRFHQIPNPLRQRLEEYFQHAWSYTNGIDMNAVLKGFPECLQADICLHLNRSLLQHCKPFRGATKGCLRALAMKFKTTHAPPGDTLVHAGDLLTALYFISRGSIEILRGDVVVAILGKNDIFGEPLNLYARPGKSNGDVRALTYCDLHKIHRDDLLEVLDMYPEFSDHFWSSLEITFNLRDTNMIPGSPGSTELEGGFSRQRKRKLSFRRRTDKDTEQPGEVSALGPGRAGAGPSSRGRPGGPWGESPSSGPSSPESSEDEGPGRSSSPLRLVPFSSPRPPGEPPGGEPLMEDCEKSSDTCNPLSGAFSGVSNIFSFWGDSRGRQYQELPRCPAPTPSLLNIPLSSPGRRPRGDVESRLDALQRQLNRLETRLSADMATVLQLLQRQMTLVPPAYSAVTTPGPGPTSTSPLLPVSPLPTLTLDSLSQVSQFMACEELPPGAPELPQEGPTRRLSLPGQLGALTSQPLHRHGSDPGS
row,Compound,"hERG current change (%, negative = inhibition) at 1uM [%]"
1,CCN(C(=O)COC(=O)/C=C/c1cccc([N+](=O)[O-])c1)c1c(N)n(Cc2ccccc2)c(=O)[nH]c1=O,9.64
2,Cc1ccc(S(=O)(=O)N/N=C/c2cccc([N+](=O)[O-])c2)cc1,17.4
3,Cc1cccc(NC(=O)CCS(=O)(=O)c2cccc3nonc23)c1C,12.4
4,O=C(O)c1ccc(COc2ccc3ccccc3c2/C=C2/NC(=O)N(c3ccccc3)C2=O)cc1,-3.53
5,COCCCNC(=S)N(CCN(C)C)Cc1cc2cc3c(cc2[nH]c1=O)OCCO3,17.2
6,Cc1cccc(OCCCC(=O)Nc2ccc(N3CCCCC3)cc2)c1,6.37
7,Cc1nn(-c2ccccc2)c(N)c1Sc1cccc([N+](=O)[O-])c1.Cl,6.21
8,COc1cccc(OC)c1C(=O)Nc1sc2c(c1C(N)=O)CCN(Cc1ccccc1)C2.Cl,7.25
9,Brc1cc2c(cc1CN1CCN(c3ccccc3)CC1)OCCO2,-1.98
10,CCOC(=O)c1sc(NC(=O)c2ccco2)nc1-c1ccccc1,12.2
11,Cc1onc(-c2ccccc2Cl)c1C(=O)Nc1nnc(C(C)C)s1,10.1
12,COC(=O)CSc1nnc(CNc2nc(-c3ccccc3)cs2)n1C,14.7
13,CC(=O)N(C)c1ccc(NC(=O)C(F)(F)F)cc1,1.19
14,O=C1N=C(N2CCOCC2)S/C1=C1\C(=O)N(Cc2ccccc2)c2ccccc21,-0.171
15,COc1ccc(-c2nnc(SCC(=O)NC(=O)NCc3ccccc3)o2)cc1,5.21
16,O=C(NCc1ccco1)C(c1ccccc1)N(CC1CCCO1)C(=O)Cn1nnc2ccccc21 (centres unmarked),-2.06
17,COC(=O)c1ccc(C(=O)OC)c(NC(=O)CSc2nnc(-c3ccccc3Cl)o2)c1,-3.27
18,Cc1cccc(N/C=C/C(=C(C#N)C#N)N(C)C)c1,-13.8
19,COc1ccc(CNc2ccc(S(N)(=O)=O)cc2)c(OC)c1OC,4.7
20,CC(=O)Nc1ccc(C(=O)N/C(=C/c2ccccc2)C(=O)Nc2cccc(C(=O)O)c2)cc1,12.3
21,C=CCn1c(SCC(=O)N2CCCC2)nc2c([nH]c3ccccc32)c1=O,5.21
22,CCOC(=O)c1ccc(C(=O)NNC(=O)C2CC=CCC2)cc1 (centres unmarked),17.9
23,N#Cc1ccccc1CSc1ncccc1C(=O)O,18

row,Compound,"hERG current change (%, negative = inhibition) at 1uM [%]"
1,CC(=O)c1c(Nc2ccccc2)sc(C(=O)c2ccccc2)c1C,-1.65
2,Cc1cccc(NC(=O)Cn2nnc(C(=O)NCc3cccs3)c2N)c1C,15.8
3,O=C1N[C@@H](Cc2ccccc2)C(=O)N2[C@H]1C[C@H]1c3ccccc3N(OOSc3ccccc3)[C@H]12,3.93
4,C=C(C)C(=O)OCC(C)C,11.6
5,C/C(=N\NC(=O)c1cccs1)c1c(O)cc(C)oc1=O,17.3
6,Cc1cc(C(=O)NN=C2C3CC4CC(C3)CC2C4)c2ccccc2n1,21.7
7,Cc1cnc(C(=O)Nc2cccc3ncccc23)cn1,10.5
8,CC1(C(=O)N/N=C/c2ccc3c(c2)OCO3)CC1(Br)Br (centres unmarked),-17
9,CCSc1nnc(NC(=O)Cc2cccc(OC)c2)s1,6.82
10,O=C(Nc1ccccc1)Nc1ccc2ocnc2c1,5.94
11,Cc1ccc(NC(=O)CCS(=O)(=O)c2cccc3nonc23)cc1Cl,9.13
12,CSc1ccccc1C(=O)N1CCc2ccccc2C1,-4.94
13,CC(C)(C)c1ccc2c(c1)N(CC(=O)N1CCOCC1)C(=O)CO2,12.4
14,O=C(CCCCCCCCC(=O)N/N=C/c1ccco1)N/N=C/c1ccco1,-4.1
15,CCc1nnc(NC(=O)CCC(=O)N2CCN(Cc3ccc(F)cc3)CC2)s1,12.9
16,Cl.OCCNCc1ccc(OCc2ccc(Cl)cc2Cl)cc1,4.59
17,O=C(CCN1CCc2ccccc2C1)Nc1ccccc1F,5.04
18,Cc1cc(CN2C(=O)c3ccccc3C2=O)no1,4.9
19,CCOC(=O)c1[nH]c(C)c(C(=O)c2ccc(C)cc2)c1C,7.26
20,COc1cc(-c2nc(-c3ccc4c(c3)-c3ccccc3S4(=O)=O)c(-c3ccccc3)[nH]2)cc(OC)c1O,4.68
21,COc1ccc(NC(C)c2cc(Cl)ccc2O)cc1 (centres unmarked),12.6
22,CCOC(=O)C1C2C=CC(CC2)N1c1ccccc1 (centres unmarked),5.82
23,CCC(=O)Nc1cc(C)c(OC)c(C)c1,11.9

row,Compound,"hERG current change (%, negative = inhibition) at 1uM [%]"
1,COc1ccc(CCNC(=S)Nc2cc(C)ccc2C)cc1,2.04
2,C/C(=C/Cc1c(O)cc2oc(C)cc(=O)c2c1O)COC1OC(CO)C(O)C(O)C1O (centres unmarked),6.89
3,O=C(Nc1cccc(-c2cccc(F)c2)c1)C1CCN(Cc2ccc(CO)o2)CC1,-13.1
4,Cc1cc(C=C(C#N)C#N)ccc1N1CCCC1,-68.6
5,COc1cccc(CC(=O)NNC(=O)c2c(-c3ccccc3)noc2C)c1,-15.8
6,COC(=O)c1cc(N2C(=O)C3C(C2=O)C2(C)C=CC3(C)O2)ccc1Cl (centres unmarked),5.73
7,O=C(/C=C/c1ccccc1)N1CCC(c2ccccc2)C1 (centres unmarked),-6.51
8,COC(=O)c1cc(OC)cc(O)c1C(=O)c1c(O)cc(C)cc1O,15.3
9,Cc1ccsc1/C=C1/SC(N2CC(C)OC(C)C2)=NC1=O (centres unmarked),7.12
10,O=S(=O)(c1ccc(OCC(O)CN2CCN(c3ccccc3O)CC2)cc1)N1CCOCC1 (centres unmarked),14.4
11,Cc1[nH][nH]c(=O)c1C(c1c(C)[nH][nH]c1=O)c1cn(Cc2ccc(Cl)c(Cl)c2)c2ccccc12,4.37
12,CCc1cccc(CC)c1NC(=O)c1ccc(-n2cncn2)nc1,11.5
13,O=C(CNC(=O)N1CC(=O)Nc2ccccc21)Nc1ccccc1F,12.4
14,O=C(CN1C(=O)CSc2ncccc21)Nc1cccc(Cl)c1,-2.19
15,COc1ccc(OCc2nnc(SCC(=O)NC3CC4CCC3C4)o2)cc1 (centres unmarked),12.7
16,CCOc1cc2[nH]c(=O)n(Cc3ccccc3)c(=O)c2cc1OCC,11.3
17,COc1cc(C2NCc3ccccc3-n3cccc32)ccc1O.Cl (centres unmarked),3.97
18,COc1ccc(-n2c(N)c(Br)c(=O)[nH]c2=O)cc1,-1.01
19,CCC(c1nnnn1C1CCCC1)N1CCN(Cc2ccccc2)CC1.Cl (centres unmarked),2.81
20,O=C(CCC1CCCCC1)NCCS(=O)(=O)N1CCN(c2ccccc2)CC1,12.7
21,COc1ccc(NC(=O)c2ccc(-n3cccn3)c([N+](=O)[O-])c2)cc1,4.88
22,C#CCOC(=O)Nc1ccc(OCC(F)(F)F)nc1,14.3
23,CCC(=O)Nc1nnc(S(=O)(=O)N2CCc3ccccc32)s1,5.4

row,Compound,"hERG current change (%, negative = inhibition) at 1uM [%]"
1,[O-]/[N+](=C\C=C\c1ccccc1)c1ccccc1,6.34
2,O=C(NCCN1CCN(C(=O)c2cccs2)CC1)C(=O)Nc1ccc(Br)cc1,-44.8
3,COC(=O)C1=C(c2cccc3c2S(=O)(=O)c2ccccc2-3)C[C@@H]2CC[C@H]1N2C(=O)N1CCc2cc(OC)c(OC)cc2C1,12.8
4,CC(C)OCCCn1c(-c2ccc(Br)cc2)c[nH]c1=S,-12.3
5,Cc1ccc(NC(=O)c2c(C(F)(F)F)nn(C)c2SCc2ccc(Cl)cc2)cc1C,11.3
6,COc1ccc(C(=O)c2coc3ccc(O)cc23)cc1,12.1
7,CCN1C(=S)N[C@@H](c2cccs2)C(C(=O)OC)=C1C,9.64
8,Cc1ccc(-n2c(SCC(=O)NCc3ccco3)nc3sc4c(c3c2=O)CC(C)(C)SC4)cc1,-3.3
9,O=C(NCc1ccccc1)C(c1ccccc1)N(C(=O)c1csnn1)C1CC1 (centres unmarked),3.82
10,CN1CCC(NC(=S)NC2CC2)CC1,9.75
11,CC1CC(C)CN(S(=O)(=O)N2CCC(C(=O)NCc3ccco3)CC2)C1 (centres unmarked),15.6
12,COc1ccc(-n2nc(C(=O)NCC(=O)N3CCCC3)c3ccccc3c2=O)cc1,13.2
13,CCC(=O)N/C(=N/c1nc(C)cc(C)n1)Nc1cccc(OC)c1,-3.38
14,COc1ccc(-n2c(=S)[nH]c3ncccc3c2=O)cc1,8.86
15,COc1ccc(C)cc1S(=O)(=O)N(CC(=O)Nc1cc([N+](=O)[O-])ccc1C)c1ccc(C)c(C)c1,13.4
16,CCSc1nnc(NC(=O)CSc2nccn2-c2cc(C)cc(C)c2)s1,3.12
17,NC(=O)c1ccc(NC(=O)C2CC2)cc1,10.3
18,NC(=O)c1ccc(N2CCNC(=O)C2)c([N+](=O)[O-])c1,19.9
19,Cc1nnc(SCC(=O)Nc2ccc(-c3nc4ccccc4s3)cc2)s1,14.5
20,COc1ccc(C)cc1NC(=O)c1cc2c(=O)n3ccccc3nc2n1C,7.55

# Source: PMC4336329 (PLoS ONE, 2015)
